Test results: ChEMBL document CHEMBL4888484, “Replenishing the malaria drug discovery pipeline: Screening and hit evaluation of the MMV Hit Generation Library 1 (HGL1) against asexual blood stage Plasmodium falciparum ,using a nano luciferase reporter read-out” (2022)
About 540 (0.36%) of roughly 150,000 compounds showed an effect of 50% or more. The list shows a part of the results.

tested on: Plasmodium falciparum; assay: Primary screen in NF54 nanoGlo assay, in single point, at 2uM, 72h; a lower Z score goes with more inhibition; type: functional, Erythrocyte; conditions: timepoint 72 hour

| SMILES | % Inhibition | Z score |
| --- | --- | --- |
| CC(C)(C)OC(=O)NCC1(C(=O)NCC2CCC3(CC2)OCCO3)CCCC1 | -2% | 0.25 |
| Cc1ccc(NC(=O)COc2nc(C)no2)cc1 | -5% | 0.72 |
| Cc1cc(C)n(-c2ccc(=O)n(CC3CN(C(=O)c4ccc(F)cc4)C3)n2)n1 | -11% | 1.27 |
| c1cc2c(cc1-c1csc(N3CCCC3)n1)OCO2 | 0% | 0.05 |
| Cc1csc(CN(C)C(=O)N(Cc2cscn2)c2ccccc2)n1 | -6% | 0.74 |
| O=C1CC(c2c(F)cccc2Cl)=NN1CCO | -21% | 2.93 |
| O=C(NC(c1cccs1)[C@H]1C[C@@H](O)C1)c1ccccc1N1CCCC1 (stereo partly specified) | -10% | 0.93 |
| CON(C)c1nc(C)nc(C)c1Br | -11% | 2.27 |
| COC[C@@H]1CCC[C@@H]1NC(=O)CCC(=O)c1ccccc1 | -5% | 0.76 |
| CC(C)c1cc(C(=O)N2CC[C@H](N3CCCCC3)C2)nc(N)n1 | 0% | 0.05 |
| O=C(CCn1cc(Cl)cn1)N1CC(c2cccnc2)C1 | 6% | -1.16 |
| CCC(NC(=O)CCN1CCCCO1)[C@H]1C[C@@H](O)C1 (stereo partly specified) | -13% | 2.41 |
| CCc1ncnc(NCCc2nc3c(s2)COCC3)c1F | -3% | 0.35 |
| CCN1C[C@H](CN(C)C(=O)c2ccc(S(=O)(=O)NC3CC3)o2)Oc2ccccc21 | 7% | -1.04 |
| CC1COC(c2cccc(Cl)c2)CN1c1nccn2cnnc12 (stereo unspecified) | 1% | -0.13 |
| Cc1ccc2c(c1)C(=O)NC1(CCN(C(=O)c3ccc4c(c3)OCO4)CC1)N2C | -4% | 0.55 |
| COc1ccc2cc1Oc1cccc(c1)CO[C@H]1CCN(C(=O)c3ccc(N4CCCC4=O)cc3)C[C@H]1NC(=O)CC2 | -22% | 2.79 |
| Cc1coc(-c2cc(NC(=O)N3CC[C@](C)(C(=O)O)C3)ccc2C)n1 | -1% | 0.11 |
| O=C(Cn1cccn1)N1CCC[C@H](CCc2ccccc2)C1 | -11% | 0.97 |
| Cc1cnc(C(=O)N(Cc2nnc(-c3ccccc3)o2)C(C)C)cn1 | -16% | 1.37 |
| O=C(NCCOCC(F)(F)F)N1CCCC2CCCC21 (stereo unspecified) | -12% | 1.88 |
| c1ccc(Cc2noc(CN3CCC4(CC3)C[C@@H]4c3nnc4n3CCCCC4)n2)cc1 | -7% | 1.15 |
| Cc1ccc2snc(C(=O)N3CCC[C@H]3c3ccn[nH]3)c2c1 | -3% | 0.42 |
